These results are taken from PMC9911399, “Two distinct binding modes provide the RNA-binding protein RbFox with extraordinary sequence specificity”.

Where a chain is given by its changes, count along the chain named. Some of the results follow.

T1: RBFOX1 RRM (Homo sapiens, UniProt Q9NWB1 109-208)
T1 sequence: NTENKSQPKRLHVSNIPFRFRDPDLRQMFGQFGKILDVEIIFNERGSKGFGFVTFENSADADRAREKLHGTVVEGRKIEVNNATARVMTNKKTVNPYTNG

B1: CUGGUAU (DNA:RNA)
RNA: GGGAGACCGGAAUUCAGAUUGUCCCUGGUAUUUAAAUCCCGUCGUAGCCACCA
DNA 1: CAATCTGAATTCCGGTCTCCC
DNA 2: TGGTGGCTACGACGGGATT
B2: GUCAAUC (DNA:RNA)
RNA: B1 RNA with C25G, G27C, G28A, U29A, A30U, U31C
DNA 1: CAATCTGAATTCCGGTCTCCC
DNA 2: TGGTGGCTACGACGGGATT
B3: UAAACAA (DNA:RNA)
RNA: B1 RNA with C25U, U26A, G27A, G28A, U29C, U31A
DNA 1: CAATCTGAATTCCGGTCTCCC
DNA 2: TGGTGGCTACGACGGGATT
B4: GUCUUCG (DNA:RNA)
RNA: B1 RNA with C25G, G27C, G28U, A30C, U31G
DNA 1: CAATCTGAATTCCGGTCTCCC
DNA 2: TGGTGGCTACGACGGGATT
B5: CCCUACU (DNA:RNA)
RNA: B1 RNA with U26C, G27C, G28U, U29A, A30C
DNA 1: CAATCTGAATTCCGGTCTCCC
DNA 2: TGGTGGCTACGACGGGATT
B6: GGUCGUU (DNA:RNA)
RNA: B1 RNA with C25G, U26G, G27U, G28C, U29G, A30U
DNA 1: CAATCTGAATTCCGGTCTCCC
DNA 2: TGGTGGCTACGACGGGATT
B7: ACAAUCG (DNA:RNA)
RNA: B1 RNA with C25A, U26C, G27A, G28A, A30C, U31G
DNA 1: CAATCTGAATTCCGGTCTCCC
DNA 2: TGGTGGCTACGACGGGATT
B8: GCUUCGA (DNA:RNA)
RNA: GGGAGACCGGAAUUCAGAUUGUCCGCUUCGAUUAAAUCCCGUCGUAGCCACCA
DNA 1: CAATCTGAATTCCGGTCTCCC
DNA 2: TGGTGGCTACGACGGGATT
B9: AACUAAC (DNA:RNA)
RNA: B1 RNA with C25A, U26A, G27C, G28U, U29A, U31C
DNA 1: CAATCTGAATTCCGGTCTCCC
DNA 2: TGGTGGCTACGACGGGATT
B10: UUUUUUU (DNA:RNA)
RNA: B1 RNA with C25U, G27U, G28U, A30U
DNA 1: CAATCTGAATTCCGGTCTCCC
DNA 2: TGGTGGCTACGACGGGATT
B11: GAGUUUA (DNA:RNA)
RNA: B8 RNA with C26A, U27G, C29U, G30U
DNA 1: CAATCTGAATTCCGGTCTCCC
DNA 2: TGGTGGCTACGACGGGATT
B12: CGUAGCU (DNA:RNA)
RNA: B1 RNA with U26G, G27U, G28A, U29G, A30C
DNA 1: CAATCTGAATTCCGGTCTCCC
DNA 2: TGGTGGCTACGACGGGATT
B13: CUAACAC (DNA:RNA)
RNA: B1 RNA with G27A, G28A, U29C, U31C
DNA 1: CAATCTGAATTCCGGTCTCCC
DNA 2: TGGTGGCTACGACGGGATT
B14: CAUUAUU (DNA:RNA)
RNA: B1 RNA with U26A, G27U, G28U, U29A, A30U
DNA 1: CAATCTGAATTCCGGTCTCCC
DNA 2: TGGTGGCTACGACGGGATT
B15: AAUUGGU (DNA:RNA)
RNA: B8 RNA with G25A, C26A, C29G, A31U
DNA 1: CAATCTGAATTCCGGTCTCCC
DNA 2: TGGTGGCTACGACGGGATT
B16: GUUCCUU (DNA:RNA)
RNA: B8 RNA with C26U, U28C, G30U, A31U
DNA 1: CAATCTGAATTCCGGTCTCCC
DNA 2: TGGTGGCTACGACGGGATT
B17: AGGCGCG (DNA:RNA)
RNA: B1 RNA with C25A, U26G, G28C, U29G, A30C, U31G
DNA 1: CAATCTGAATTCCGGTCTCCC
DNA 2: TGGTGGCTACGACGGGATT
B18: AUGUACU (DNA:RNA)
RNA: B1 RNA with C25A, G28U, U29A, A30C
DNA 1: CAATCTGAATTCCGGTCTCCC
DNA 2: TGGTGGCTACGACGGGATT
B19: GCACCCU (DNA:RNA)
RNA: B8 RNA with U27A, U28C, G30C, A31U
DNA 1: CAATCTGAATTCCGGTCTCCC
DNA 2: TGGTGGCTACGACGGGATT
B20: GUAUGAG (DNA:RNA)
RNA: B1 RNA with C25G, G27A, G28U, U29G, U31G
DNA 1: CAATCTGAATTCCGGTCTCCC
DNA 2: TGGTGGCTACGACGGGATT
B21: AAAGAAU (DNA:RNA)
RNA: B1 RNA with C25A, U26A, G27A, U29A
DNA 1: CAATCTGAATTCCGGTCTCCC
DNA 2: TGGTGGCTACGACGGGATT
B22: UAGUGGG (DNA:RNA)
RNA: B8 RNA with G25U, C26A, U27G, C29G, A31G
DNA 1: CAATCTGAATTCCGGTCTCCC
DNA 2: TGGTGGCTACGACGGGATT
B23: GUGGCCC (DNA:RNA)
RNA: B1 RNA with C25G, U29C, A30C, U31C
DNA 1: CAATCTGAATTCCGGTCTCCC
DNA 2: TGGTGGCTACGACGGGATT
B24: CAUCACG (DNA:RNA)
RNA: B1 RNA with U26A, G27U, G28C, U29A, A30C, U31G
DNA 1: CAATCTGAATTCCGGTCTCCC
DNA 2: TGGTGGCTACGACGGGATT
B25: CCAUGAG (DNA:RNA)
RNA: B1 RNA with U26C, G27A, G28U, U29G, U31G
DNA 1: CAATCTGAATTCCGGTCTCCC
DNA 2: TGGTGGCTACGACGGGATT
B26: CGUGAUU (DNA:RNA)
RNA: B1 RNA with U26G, G27U, U29A, A30U
DNA 1: CAATCTGAATTCCGGTCTCCC
DNA 2: TGGTGGCTACGACGGGATT
B27: ACAAGUA (DNA:RNA)
RNA: B8 RNA with G25A, U27A, U28A, C29G, G30U
DNA 1: CAATCTGAATTCCGGTCTCCC
DNA 2: TGGTGGCTACGACGGGATT
B28: UCCUAGA (DNA:RNA)
RNA: B8 RNA with G25U, U27C, C29A
DNA 1: CAATCTGAATTCCGGTCTCCC
DNA 2: TGGTGGCTACGACGGGATT
B29: UGCUUCA (DNA:RNA)
RNA: B8 RNA with G25U, C26G, U27C, C29U, G30C
DNA 1: CAATCTGAATTCCGGTCTCCC
DNA 2: TGGTGGCTACGACGGGATT
B30: UGAGGUG (DNA:RNA)
RNA: B1 RNA with C25U, U26G, G27A, U29G, A30U, U31G
DNA 1: CAATCTGAATTCCGGTCTCCC
DNA 2: TGGTGGCTACGACGGGATT
B31: UUAGGUU (DNA:RNA)
RNA: B1 RNA with C25U, G27A, U29G, A30U
DNA 1: CAATCTGAATTCCGGTCTCCC
DNA 2: TGGTGGCTACGACGGGATT

This test addresses T1, RBFOX1 RRM. Nature of the test: EMSA; HiTS-Eq, 1 nM pool, 10 min; buffer printed only for the single-RNA assays: 10 mM Tris pH 7.5, 150 mM NaCl, 3.4 mM EDTA, 0.001% NP-40, 30 C. The conditions noted are these: tags: His6 N-terminal (pET28a); label: 5' 32P. The essentials:
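Purified wild-type or mutant RbFox RRM at increasing concentrations was equilibrated with 1 nM of 5′-radiolabelled RNA carrying 7 randomized nucleotides for 10 min in 50 µL. Unbound RNA was separated by 8% native PAGE and sequenced. Relative association constants came from read-count changes of each RNA species compared with the control reaction, normalised to the cognate motif.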
As to B1, the binding signal was 0.0153 KA relative to UGCAUGU.

For the molecule B2, the binding signal was 0.00781 KA relative to UGCAUGU. As to B3, the binding signal is 0.000916 KA relative to UGCAUGU.

As to B4, the binding signal is 0.0145 KA relative to UGCAUGU. To B5 belongs 0.00609 KA relative to UGCAUGU; to B6, 0.0109 KA relative to UGCAUGU. Regarding B7, the binding signal was 0.000509 KA relative to UGCAUGU. To B8 belongs 0.0205 KA relative to UGCAUGU; to B9, 0.00138 KA relative to UGCAUGU. To B10 belongs 0.0186 KA relative to UGCAUGU; to B11, 0.00687 KA relative to UGCAUGU. The value for B12 was 0.00923 KA relative to UGCAUGU; that for B13 was 0.00387 KA relative to UGCAUGU. With B14, the binding signal was 0.00131 KA relative to UGCAUGU. The value for B15 was 0.0103 KA relative to UGCAUGU. On to B16, for which the binding signal was 0.0123 KA relative to UGCAUGU. B17: the binding signal was 0.0195 KA relative to UGCAUGU. For B18, the binding signal is 0.00502 KA relative to UGCAUGU. B19: the binding signal was 0.00773 KA relative to UGCAUGU.

With B20, the binding signal was 0.0141 KA relative to UGCAUGU.

Turning to B21, the binding signal was 0.00495 KA relative to UGCAUGU. Consider B22, for which the binding signal is 0.00819 KA relative to UGCAUGU. As for B23, the binding signal was 0.0179 KA relative to UGCAUGU.

With B24, the binding signal is 0.00351 KA relative to UGCAUGU. To B25 belongs 0.0109 KA relative to UGCAUGU; to B26, 0.00971 KA relative to UGCAUGU. To B27 belongs 0.000377 KA relative to UGCAUGU. Regarding B28, the binding signal was 0.01 KA relative to UGCAUGU.

For the molecule B29, the binding signal is 0.0113 KA relative to UGCAUGU. To B30 belongs 0.0201 KA relative to UGCAUGU. To B31 belongs 0.0151 KA relative to UGCAUGU.
